# From the supplement of paper PMC11417369
# ± gives the standard deviation of the averaged measurements. The list shows a part of the results.
# Tested on: PfAP2-EXP AP2 domain (GST-tagged)
# Assay: gcPBM binding intensity (ln(normalized median fluorescence intensity)); higher = stronger DNA binding
# How it was run: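 The binding buffer was 1× PBS containing 1% milk, 0.2 mg/ml BSA, 0.5% salmon testes DNA and 0.03% Triton X-100. In it, GST-tagged P. falciparum DNA-binding domains expressed in E. coli were applied for 1 h to an Agilent 4 × 180k array of primer-extended double-stranded 36-bp intergenic genomic probes plus negative controls. Binding intensity, read with Alexa488 anti-GST antibody and a 488 nm scan, is the highest Masliner-normalised natural-log median intensity across replicate spots of either probe orientation.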
row,Sequence,gcPBM binding intensity (ln)
1,TTTGTTTAAATTAAATGTACATAAAGAATAATATAT [XGTACX_site5093],8.83 ± 0.24
2,TGCTTTATTATTTATTGTACATGTAAAATGAGAGAG [XGTACX_site2288],8.8 ± 0.35
3,TCGTGTTAAACTTTTACACACAAACTTGCAATAATT [CACACA_site7745],8.65 ± 0.27
4,TAATAACTACAAAAAAAAAAGAAAAATAGAAAAAGG [CACACA_negctrl_site1102],8.54 ± 0.66
5,AGAAGGTAAATAATTTACCCATATATATAAATATAT [GTGCAC_negctrl_site631],8.27 ± 0.43
6,AATTATATGAAATAAACACACATATGTAATATTACA [CACACA_site1928],8.56 ± 0.43
7,TTTCTTAAAATGTTATGTACATATTTCGTTTCAAAG [XGTACX_site6102],8.63 ± 0.41
8,TCTTTTTAATTTATATGTACTTATATTAATTATAAG [XGTACX_site7524],8.38 ± 0.35
9,ATATATTTCAAAGGGGTGCAGGCATATTTAAGCAAA,9.02
10,TTAATAAAAGCCCATGCACACCTTAGAAAGTTTTAT [CACACA_site8003],8.43 ± 0.45
11,TGAGCTTCAACAATATGTACATAAAATATATTACAT [XGTACX_site4763],8.66 ± 0.33
12,GTATTATAGTATAATACACACCCAAATATTAAAAAG [CACACA_site7404],8.81 ± 0.41
13,GAAATAAGTTAAAATAGTACGTAGTGTTCCTTAAGT [XGTACX_site6557],8.62 ± 0.42
14,TAAATAATATCCCTTTGTACGTATTTTTTTTTATTA [XGTACX_site7303],8.65 ± 0.39
15,CGTTATATATGTATTACATGCAATATATGTACGTAA [TGCATGCA_site274],8.68 ± 0.16
16,TTAAAAATAATATATTGTACACATACTTATTTTAAT [XGTACX_site1348],8.32 ± 0.4
17,TTAGGAAAACAAAAATGTACGCATATATATTATTGA [XGTACX_site8288],8.58 ± 0.3
18,GTTTATTCATCATACGGTACACATAAATAATATATA [XGTACX_site6931],8.78 ± 0.32
19,AAGACTTCTCCATATACACACACCAACAAATATAAA [CACACA_site2779],8.82 ± 0.54

row,Sequence,gcPBM binding intensity (ln)
1,TTTTTCTTTTGATGTTGTACATATATATCATATAAT [XGTACX_site1189],8.61 ± 0.34
2,GTGCATATACAAATATGTACTTAAACGTTTTTTTTT [XGTACX_site7362],8.77 ± 0.14
3,ATTTTTTTTTTTTTTTTTTGGTTTTCTTTAGGAGTT [CACACA_negctrl_site1258],8.13 ± 0.48
4,TTCGTTTAAATCAAGTGTACATATTATATATAATAT [XGTACX_site7599],8.67 ± 0.37
5,GATGAATAAATCAAAGCACACATACACCCACATATA [CACACA_site7986],8.79 ± 0.67
6,TAATAATAATTATATACACACATGTATATTATATTT [CACACA_site1501],8.16 ± 0.24
7,ATTTAAATATATTATTGTACATATACCTAATAAGAA [XGTACX_site6655],8.54 ± 0.26
8,ACTCCTATATAAATGAACCATATTCATAATATATAT [CACACA_negctrl_site1636],8.41 ± 0.35
9,AAATGAAAGAATTAAAGTACATTTATATAATTTTAA [XGTACX_site3540],8.29 ± 0.3
10,AAGAGAAAAACATACACACACAACAAAATATGTATA [CACACA_site2719],8.52 ± 0.6
11,TGTATAATATATATATGTACTTATGTATAATATTAT [XGTACX_site4328],8.34 ± 0.35
12,TGCATAAAAGTAAAAACATGCATGCCGTGGTATCTT [TGCATGCA_site664],9.23 ± 0.4
13,AAGATATCTAAGGAAATTAAACTACCAAAATATATA [TGCATGCA_negctrl_site338],8.39 ± 0.42
14,TTTTTATGGATATTTATATTATATTATGATTAAAAA [TGCATGCA_negctrl_site204],8.09 ± 0.4
15,GACATATAAATATACACACATACGTAAGTATATTAA [CACACA_site1790],8.24 ± 0.39
16,CTTTATAATATTTGTTGTACACAAATATAACATATT [XGTACX_site709],8.64 ± 0.37
17,AATAATACAAAAGTTCAACAAAAAAAAAAAAAAAAT [CACACA_negctrl_site952],8.25 ± 0.64
18,AATATATTTATAAGCACACACTAATAAACACAGACA [CACACA_site4377],8.88 ± 0.43
19,GTACATAATTATTATGCACACATATTTTTATGTATT [CACACA_site8132],8.47 ± 0.17

row,Sequence,gcPBM binding intensity (ln)
1,AAATATATATATATATATATATATGTGTGTGTATAT [GTGCAC_negctrl_site1],8.7 ± 0.18
2,TTTCAAAAGTAATACTGTACTTATTTTTATGATTTA [XGTACX_site4184],8.32 ± 0.29
3,TTATACATAAATTTTGTACACACAAAAAAAAAAAAG [CACACA_site8374],8.53 ± 0.34
4,ACATATATATATATATATATATATATATTACATTTA [CACACA_negctrl_site627],8.91 ± 0.028
5,GAATTTTTTTAATGTTGTACTTTTTTTTTTTTTTCT [XGTACX_site648],8.54 ± 0.5
6,TTTTTGTTAAACAGGGTGCTAATCTGAATTAATATT [GTGCAC_site9908],8.49 ± 0.22
7,ACATATTTTATTTTTTGTACACATATATTATTTTTT [XGTACX_site6528],8.99 ± 0.42
8,ATATATATATATTACACACACACAAAAAAAATAAAG [CACACA_site118],9.54 ± 0.23
9,AATTTACAAATATAATGTACATAATTATATATATAT [XGTACX_site278],9.57 ± 0.26
10,AAAAAAAAAAAAAATACACACATAAAATAAATAACA [CACACA_site439],8.5 ± 0.61
11,TTTGGTTATATTTAAAAAAGACTAATGAAAATTAAA [XGTACX_negctrl_site526],8.15 ± 0.4
12,CATACCATACATAAAACACACAAAATTTACAGAATA [CACACA_site7451],8.75 ± 0.37
13,AATAGTAAAAATCACTGTACGTTTATTTTTAAAATG [XGTACX_site1035],8.34 ± 0.36
14,CCATATACAACCATACGTACATATATATATATATAT [XGTACX_site8193],10.2 ± 0.2
15,TATAATATTATACATAGTACACATCACACATCGCAA [XGTACX_site4650],8.85 ± 0.31
16,TAGAAAAACATTACGTGTACCAAACATCCTAGCAAC [XGTACX_site4888],8.62 ± 0.2
17,ATATTATTTATAGGGTGTACCTTATTATTATAAGAA [XGTACX_site7148],8.35 ± 0.18
18,TATATACTTTTATGTACACACCTATAATATGGGTGA [CACACA_site5044],8.45 ± 0.33
